{
  "source": "the supplement of paper PMC8728848",
  "experiment_in_all_cases": "glycan array binding signal (z-score within array); higher = stronger binding",
  "conditions_in_all_cases": "glycan notation: IUPAC condensed, linker removed",
  "key": {"Gal(b1-4)Glc": {"target": "Gal(b1-4)Glc", "outline": "(§1)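 Glycan array data came from 3228 arrays in the Consortium for Functional Glycomics database, and only arrays with an available protein sequence were kept. Glycan names were put into IUPAC-condensed notation, and columns mapping to the same glycan were averaged. The binding signal is a within-array Z-score, averaged across arrays of one protein sequence run at different concentrations or buffers and across linkers. A negative Z-score can be read as non-binding.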"}, "Gal(b1-4)Glc6S": {"target": "Gal(b1-4)Glc6S", "outline": "as §1"}, "Gal(b1-4)GlcNAc": {"target": "Gal(b1-4)GlcNAc", "outline": "as §1"}, "[1]": {"target": "Gal(b1-4)GlcNAc(a1-6)Gal(b1-4)GlcNAc", "outline": "as §1"}, "Gal(b1-4)GlcNAc(b1-2)Man": {"target": "Gal(b1-4)GlcNAc(b1-2)Man", "outline": "as §1"}, "[2]": {"target": "Gal(b1-4)GlcNAc(b1-2)Man(a1-3)Man(b1-4)GlcNAc(b1-4)GlcNAc", "outline": "as §1"}, "[3]": {"target": "Gal(b1-4)GlcNAc(b1-2)Man(a1-3)[Gal(b1-4)GlcNAc(b1-2)Man(a1-6)]Man(b1-4)GlcNAc(b1-4)GlcNAc", "outline": "as §1"}, "[4]": {"target": "Gal(b1-4)GlcNAc(b1-2)Man(a1-3)[Gal(b1-4)GlcNAc(b1-2)Man(a1-6)]Man(b1-4)GlcNAc(b1-4)[Fuc(a1-6)]GlcNAc", "outline": "as §1"}, "[5]": {"target": "Gal(b1-4)GlcNAc(b1-2)Man(a1-3)[Gal(b1-4)GlcNAc(b1-2)Man(a1-6)][Gal(b1-4)GlcNAc(b1-4)]Man(b1-4)GlcNAc(b1-4)[Fuc(a1-6)]GlcNAc", "outline": "as §1"}, "[6]": {"target": "Gal(b1-4)GlcNAc(b1-2)Man(a1-3)[Gal(b1-4)GlcNAc(b1-2)Man(a1-6)][GlcNAc(b1-4)]Man(b1-4)GlcNAc(b1-4)[Fuc(a1-6)]GlcNAc", "outline": "as §1"}, "[7]": {"target": "Gal(b1-4)GlcNAc(b1-2)Man(a1-3)[GlcNAc(b1-2)Man(a1-6)]Man(b1-4)GlcNAc(b1-4)GlcNAc", "outline": "as §1"}, "[8]": {"target": "Gal(b1-4)GlcNAc(b1-2)Man(a1-3)[GlcNAc(b1-4)][Gal(b1-4)GlcNAc(b1-2)Man(a1-6)]Man(b1-4)GlcNAc(b1-4)GlcNAc", "outline": "as §1"}, "[9]": {"target": "Gal(b1-4)GlcNAc(b1-2)Man(a1-3)[Man(a1-6)]Man(b1-4)GlcNAc(b1-4)GlcNAc", "outline": "as §1"}, "[10]": {"target": "Gal(b1-4)GlcNAc(b1-2)Man(a1-6)Man(b1-4)GlcNAc(b1-4)GlcNAc", "outline": "as §1"}, "[11]": {"target": "Gal(b1-4)GlcNAc(b1-2)Man(a1-6)[GlcNAc(b1-2)Man(a1-3)]Man(b1-4)GlcNAc(b1-4)GlcNAc", "outline": "as §1"}, "[12]": {"target": "Gal(b1-4)GlcNAc(b1-2)Man(a1-6)[Man(a1-3)]Man(b1-4)GlcNAc(b1-4)GlcNAc", "outline": "as §1"}, "[13]": {"target": "Gal(b1-4)GlcNAc(b1-2)[Gal(b1-4)GlcNAc(b1-4)]Man(a1-3)[Gal(b1-4)GlcNAc(b1-2)Man(a1-6)]Man(b1-4)GlcNAc(b1-4)GlcNAc", "outline": "as §1"}, "[14]": {"target": "Gal(b1-4)GlcNAc(b1-2)[Gal(b1-4)GlcNAc(b1-4)]Man(a1-3)[Gal(b1-4)GlcNAc(b1-2)[Gal(b1-4)GlcNAc(b1-6)]Man(a1-6)]Man(b1-4)GlcNAc(b1-4)GlcNAc", "outline": "as §1"}, "[15]": {"target": "Gal(b1-4)GlcNAc(b1-2)[Gal(b1-4)GlcNAc(b1-4)]Man(a1-3)[GlcNAc(b1-4)][Gal(b1-4)GlcNAc(b1-2)Man(a1-6)]Man(b1-4)GlcNAc(b1-4)GlcNAc", "outline": "as §1"}, "[16]": {"target": "Gal(b1-4)GlcNAc(b1-2)[Gal(b1-4)GlcNAc(b1-4)]Man(a1-3)[GlcNAc(b1-4)][Gal(b1-4)GlcNAc(b1-2)[Gal(b1-4)GlcNAc(b1-6)]Man(a1-6)]Man(b1-4)GlcNAc(b1-4)GlcNAc", "outline": "as §1"}, "[17]": {"target": "Gal(b1-4)GlcNAc(b1-2)[Gal(b1-4)GlcNAc(b1-6)]Man(a1-6)[Gal(b1-4)GlcNAc(b1-2)Man(a1-3)]Man(b1-4)GlcNAc(b1-4)GlcNAc", "outline": "as §1"}, "[18]": {"target": "Gal(b1-4)GlcNAc(b1-2)[Gal(b1-4)GlcNAc(b1-6)]Man(a1-6)[Gal(b1-4)GlcNAc(b1-2)Man(a1-3)]Man(b1-4)GlcNAc(b1-4)[Fuc(a1-6)]GlcNAc", "outline": "as §1"}, "[19]": {"target": "Gal(b1-4)GlcNAc(b1-2)[Gal(b1-4)GlcNAc(b1-6)]Man(a1-6)[GlcNAc(b1-4)][Gal(b1-4)GlcNAc(b1-2)Man(a1-3)]Man(b1-4)GlcNAc(b1-4)GlcNAc", "outline": "as §1"}, "[20]": {"target": "Gal(b1-4)GlcNAc(b1-2)[Gal(b1-4)GlcNAc(b1-6)]Man(a1-6)[GlcNAc(b1-4)][Gal(b1-4)GlcNAc(b1-2)[Gal(b1-4)GlcNAc(b1-4)]Man(a1-3)]Man(b1-4)GlcNAc(b1-4)[Fuc(a1-6)]GlcNAc", "outline": "as §1"}, "[21]": {"target": "Gal(b1-4)GlcNAc(b1-3)Gal(b1-3)GalNAc", "outline": "as §1"}, "[22]": {"target": "Gal(b1-4)GlcNAc(b1-3)Gal(b1-3)GlcNAc", "outline": "as §1"}, "[23]": {"target": "Gal(b1-4)GlcNAc(b1-3)Gal(b1-4)Glc", "outline": "as §1"}, "[24]": {"target": "Gal(b1-4)GlcNAc(b1-3)Gal(b1-4)GlcNAc", "outline": "as §1"}, "[25]": {"target": "Gal(b1-4)GlcNAc(b1-3)Gal(b1-4)GlcNAc(b1-2)Man(a1-3)[Gal(b1-4)GlcNAc(b1-3)Gal(b1-4)GlcNAc(b1-2)Man(a1-6)]Man(b1-4)GlcNAc(b1-4)GlcNAc", "outline": "as §1"}, "[26]": {"target": "Gal(b1-4)GlcNAc(b1-3)Gal(b1-4)GlcNAc(b1-2)Man(a1-3)[Gal(b1-4)GlcNAc(b1-3)Gal(b1-4)GlcNAc(b1-2)Man(a1-6)]Man(b1-4)GlcNAc(b1-4)[Fuc(a1-6)]GlcNAc", "outline": "as §1"}},
  "note": "The other results are listed elsewhere or left out.",
  "data": [
    {"binder": "Pa IMPa (Pseudomonas aeruginosa), Q9I5W4 (protein) MSLSTTAFPSLQGENMSRSPIPRHRALLAGFCLAGALSAQAATQEEILDAALVSGDSSQLTDSHLVALRLQQQVERIRQTRTQLLDGLYQNLSQAYDPGAASMWVLPANPDNTLPFLIGDKGRVLASLSLEAGGRGLAYGTNVLTQLSGTNAAHAPLLKRAVQWLVNGDPGAATAKDFKVSVVGVDKTAALNGLKSAGLQPADAACNALTDASCASTSKLLVLGNGASAASLSATVRARLQAGLPILFVHTNGWNQSSTGQQILAGLGLQEGPYGGNYWDKDRVPSSRTRTRSVELGGAYGQDPALVQQIVDGSWRTDYDWSKCTSYVGRTTCDDVPGLSDFSKRVDVLKGALDAYNQKAQNLFALPGTTSLRLWLLWADAVRQNIRYPMDKAADTARFQETFVADAIVGYVREAGAAQKELGSYAGQRQQSMPVSGSEETLTLTLPSAQGFTAIGRMAAPGKRLSIRIEDAGQASLAVGLNTQRIGSTRLWNTRQYDRPRFLKSPDIKLQANQSVALVSPYGGLLQLVYSGATPGQTVTVKVTGAASQPFLDIQPGEDSSQAIADFIQALDADKADWLEIRSGSVEVHAKVEKVRGSIDKDYGGDVQRFIRELNEVFIDDAYTLAGFAIPNQAKTPAIQQECAARGWDCDSETLHKLPGTQHINVDQYAQCGGGCSGNPYDQTWGLNPRGWGESHELGHNLQVNRLKVYGGRSGEISNQIFPLHKDWRVLREFGQNLDDTRVNYRNAYNLIVAGRAEADPLAGVYKRLWEDPGTYALNGERMAFYTQWVHYWADLKNDPLQGWDIWTLLYLHQRQVDKSDWDANKAALGYGTYAQRPGNSGDASSTDGNDNLLLGLSWLTQRDQRPTFALWGIRTSAAAQAQVAAYGFAEQPAFFYANNRTNEYSTVKLLDMSQGSPAWPFP", "values": [
      {"measurement": "glycan array binding signal (z-score)", "setting": "Gal(b1-4)Glc", "result": -0.44},
      {"measurement": "glycan array binding signal (z-score)", "setting": "Gal(b1-4)Glc6S", "result": -0.27},
      {"measurement": "glycan array binding signal (z-score)", "setting": "Gal(b1-4)GlcNAc", "result": -0.098},
      {"measurement": "glycan array binding signal (z-score)", "setting": "[1]", "result": -0.184},
      {"measurement": "glycan array binding signal (z-score)", "setting": "Gal(b1-4)GlcNAc(b1-2)Man", "result": -0.211},
      {"measurement": "glycan array binding signal (z-score)", "setting": "[2]", "result": 1.02},
      {"measurement": "glycan array binding signal (z-score)", "setting": "[3]", "result": 0.332},
      {"measurement": "glycan array binding signal (z-score)", "setting": "[4]", "result": -0.396},
      {"measurement": "glycan array binding signal (z-score)", "setting": "[5]", "result": -0.351},
      {"measurement": "glycan array binding signal (z-score)", "setting": "[6]", "result": -0.448},
      {"measurement": "glycan array binding signal (z-score)", "setting": "[7]", "result": 0.101},
      {"measurement": "glycan array binding signal (z-score)", "setting": "[8]", "result": 0.105},
      {"measurement": "glycan array binding signal (z-score)", "setting": "[9]", "result": 0.302},
      {"measurement": "glycan array binding signal (z-score)", "setting": "[10]", "result": 0.603},
      {"measurement": "glycan array binding signal (z-score)", "setting": "[11]", "result": -0.516},
      {"measurement": "glycan array binding signal (z-score)", "setting": "[12]", "result": -0.177},
      {"measurement": "glycan array binding signal (z-score)", "setting": "[13]", "result": -0.42},
      {"measurement": "glycan array binding signal (z-score)", "setting": "[14]", "result": -0.409},
      {"measurement": "glycan array binding signal (z-score)", "setting": "[15]", "result": -0.066},
      {"measurement": "glycan array binding signal (z-score)", "setting": "[16]", "result": -0.134},
      {"measurement": "glycan array binding signal (z-score)", "setting": "[17]", "result": -0.133},
      {"measurement": "glycan array binding signal (z-score)", "setting": "[18]", "result": -0.317},
      {"measurement": "glycan array binding signal (z-score)", "setting": "[19]", "result": 0.232},
      {"measurement": "glycan array binding signal (z-score)", "setting": "[20]", "result": 0.256},
      {"measurement": "glycan array binding signal (z-score)", "setting": "[21]", "result": -0.43},
      {"measurement": "glycan array binding signal (z-score)", "setting": "[22]", "result": 0.118},
      {"measurement": "glycan array binding signal (z-score)", "setting": "[23]", "result": -0.197},
      {"measurement": "glycan array binding signal (z-score)", "setting": "[24]", "result": -0.509},
      {"measurement": "glycan array binding signal (z-score)", "setting": "[25]", "result": -0.152},
      {"measurement": "glycan array binding signal (z-score)", "setting": "[26]", "result": 0.449}
    ]}
  ]
}
